The results in this text go back to PMC8174033.

Sequences of proteins named here, by UniProt entry; tags and fusion partners are left off. A change or cut given only in a name is not applied to a line headed by its entry. A line that says so, or that is headed by a name, gives the form on record, which may keep a tag or linker. Residues count along the entry.
UniProt P43146, residues 26-1447: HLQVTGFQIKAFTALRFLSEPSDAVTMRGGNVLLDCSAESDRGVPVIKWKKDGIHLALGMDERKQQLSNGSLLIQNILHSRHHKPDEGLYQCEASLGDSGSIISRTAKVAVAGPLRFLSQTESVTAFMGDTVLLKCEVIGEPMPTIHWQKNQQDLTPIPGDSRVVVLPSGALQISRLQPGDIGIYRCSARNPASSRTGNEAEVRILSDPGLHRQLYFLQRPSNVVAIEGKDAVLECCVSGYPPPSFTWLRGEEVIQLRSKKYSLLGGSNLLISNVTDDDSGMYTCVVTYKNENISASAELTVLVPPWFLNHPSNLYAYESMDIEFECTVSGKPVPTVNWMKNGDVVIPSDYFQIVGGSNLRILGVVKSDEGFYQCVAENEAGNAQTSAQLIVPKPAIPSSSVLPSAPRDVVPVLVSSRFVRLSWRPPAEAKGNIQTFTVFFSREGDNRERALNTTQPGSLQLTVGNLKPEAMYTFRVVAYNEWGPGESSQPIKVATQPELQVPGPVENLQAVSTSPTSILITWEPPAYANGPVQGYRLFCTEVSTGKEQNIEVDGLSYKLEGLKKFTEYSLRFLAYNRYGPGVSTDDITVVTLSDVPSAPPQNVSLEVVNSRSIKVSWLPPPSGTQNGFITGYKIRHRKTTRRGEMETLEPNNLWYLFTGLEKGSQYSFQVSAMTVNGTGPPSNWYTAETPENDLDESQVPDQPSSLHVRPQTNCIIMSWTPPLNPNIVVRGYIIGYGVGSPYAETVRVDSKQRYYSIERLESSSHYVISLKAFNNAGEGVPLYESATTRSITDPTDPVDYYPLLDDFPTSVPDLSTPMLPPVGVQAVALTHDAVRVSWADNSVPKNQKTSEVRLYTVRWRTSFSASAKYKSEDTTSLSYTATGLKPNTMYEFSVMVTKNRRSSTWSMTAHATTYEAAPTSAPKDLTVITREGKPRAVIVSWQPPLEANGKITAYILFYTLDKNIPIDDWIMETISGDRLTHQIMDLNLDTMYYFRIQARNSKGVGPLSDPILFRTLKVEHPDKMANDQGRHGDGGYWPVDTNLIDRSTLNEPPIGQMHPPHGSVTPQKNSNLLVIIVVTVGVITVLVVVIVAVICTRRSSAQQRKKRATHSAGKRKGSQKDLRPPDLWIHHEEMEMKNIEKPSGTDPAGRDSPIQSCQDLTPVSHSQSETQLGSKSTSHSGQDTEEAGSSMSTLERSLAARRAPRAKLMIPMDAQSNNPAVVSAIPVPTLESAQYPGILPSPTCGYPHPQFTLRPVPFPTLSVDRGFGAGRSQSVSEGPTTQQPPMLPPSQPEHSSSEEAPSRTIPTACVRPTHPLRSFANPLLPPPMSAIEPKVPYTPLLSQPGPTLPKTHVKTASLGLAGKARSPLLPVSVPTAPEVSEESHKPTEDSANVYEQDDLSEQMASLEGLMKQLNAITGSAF
UniProt Q14194: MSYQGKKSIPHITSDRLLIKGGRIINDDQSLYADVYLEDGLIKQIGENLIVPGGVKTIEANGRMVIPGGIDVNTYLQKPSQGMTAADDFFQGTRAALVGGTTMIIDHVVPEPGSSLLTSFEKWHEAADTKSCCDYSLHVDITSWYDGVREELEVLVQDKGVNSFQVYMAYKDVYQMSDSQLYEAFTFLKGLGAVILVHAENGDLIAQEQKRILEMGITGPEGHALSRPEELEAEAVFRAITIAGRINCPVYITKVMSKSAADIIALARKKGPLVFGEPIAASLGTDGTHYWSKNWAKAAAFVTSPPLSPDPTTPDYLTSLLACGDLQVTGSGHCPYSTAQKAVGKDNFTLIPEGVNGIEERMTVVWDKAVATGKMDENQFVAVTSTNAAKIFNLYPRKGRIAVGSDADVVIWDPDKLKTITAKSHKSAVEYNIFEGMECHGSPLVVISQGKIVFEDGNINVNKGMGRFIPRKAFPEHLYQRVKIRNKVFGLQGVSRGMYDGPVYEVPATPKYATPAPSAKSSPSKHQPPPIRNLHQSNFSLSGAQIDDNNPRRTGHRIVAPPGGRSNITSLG
CRMP1 (amino acids 1-462), N-terminal and central amidohydrolase family domain, EmGFP-tagged: residues 1-462 of Q14194
CRMP1 (amino acids 465-572), C-terminal region, EmGFP-tagged: residues 465-572 of Q14194
UniProt P63045: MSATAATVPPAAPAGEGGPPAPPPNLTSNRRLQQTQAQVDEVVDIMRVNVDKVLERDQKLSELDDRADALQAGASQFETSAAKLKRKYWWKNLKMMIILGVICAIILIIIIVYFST

For test [1], the target named is deleted in colorectal cancer (DCC), EmGFP-tagged (human) (UniProt P43146). In words: co-IP; HEK293 cells expressing three proteins together (EmGFP-DCC, FLAG-FEZ1, Myc-Stx1); HEPES lysis buffer with 1% Triton X-100; GFP-Trap; immunoblot.
Test [2] has as its target CRMP1 (amino acids 1-462), N-terminal and central amidohydrolase family domain, EmGFP-tagged (human) (UniProt Q14194). In words: co-IP; HEK293 cells co-expressing the two tagged proteins, 24 h after transfection; lysis and washes in 50 mM HEPES, 150 mM NaCl, 1 mM EDTA, 1% Triton X-100, pH 7.2; GFP-Trap agarose beads 1-3 h at 4°C; immunoblot.
The next test addresses VAMP2, GFP-tagged (UniProt P63045). The description is as above.
For test [3], the target named is collapsin response mediator protein 1 (CRMP1), full-length, EmGFP-tagged (human) (UniProt Q14194). Described as above.
In test [4] the target is CRMP1 (amino acids 465-572), C-terminal region, EmGFP-tagged (human) (UniProt Q14194). The test is described as above.

No constants are given. Whether binding was seen depends on the method and setting. Binding seen in cells or lysates may run through a third protein. Some results given as binding are weak or reduced against the parent protein; the word gives no strength. Sequences can lack the tags named with a protein.

B1: fasciculation and elongation protein zeta 1 (FEZ1), full-length, FLAG-tagged (protein, UniProt Q99689 1-392)
chain: MEAPLVSLDEEFEDLRPSCSEDPEEKPQCFYGSSPHHLEDPSLSELENFSSEIISFKSMEDLVNEFDEKLNVCFRNYNAKTENLAPVKNQLQIQEEEETLQDEEVWDALTDNYIPSLSEDWRDPNIEALNGNCSDTEIHEKEEEEFNEKSENDSGINEEPLLTADQVIEEIEEMMQNSPDPEEEEEVLEEEDGGETSSQADSVLLQEMQALTQTFNNNWSYEGLRHMSGSELTELLDQVEGAIRDFSEELVQQLARRDELEFEKEVKNSFITVLIEVQNKQKEQRELMKKRRKEKGLSLQSSRIEKGNQMPLKRFSMEGISNILQSGIRQTFGSSGTDKQYLNTVIPYEKKASPPSVEDLQMLTNILFAMKEDNEKVPTLLTDYILKVLCPT
Take B1: the binding result is recorded as “binds” in test [1]; “binds” in test [2]; “binds” with VAMP2, GFP-tagged; “binds” in test [3]; “binds weakly” in test [4].
